{"source": "paper PMC12136788", "binders": {"B1": {"name": "chr2:101883234:101883235:+_ENSG00000158435_ENST00000289382|hu_mus|motif|central (ssRNA)", "RNA": "GGGAGUUCUACAGUCCGACGAUCGAAAUACUCCGUGAUCUGGCUUGACUGCAUCAGUUUCAGCAGCAUUUCUAUAGCGACGGAAGGGUUGUUCUCCACUAGAUCUGGAAGUUUCGCUGGAGUAAGGCCAAUGUGAUAAACAAGCAACAGAGGAUUGAGCAUCA"}, "B2": {"name": "chr7:65705844:65705845:+_ENSG00000169902_ENST00000304842|hu_mus|hu_hu_hu_mus_False|58_88 (ssRNA)", "RNA": "GGGAGUUCUACAGUCCGACGAUCAAACGGAUCUUUGUUACAUAAAUAAGGGGCUGGCUCCCCAUGUUUAACAAUGAUUUCUAGUAAGAAGGCUUGCAUGGCAGAAUCUAGCACUUCAUCUGUGACACCCGCCUCAUCCAAGCGCAACAGAGGAUUGAGCAUCA"}, "B3": {"name": "chr7:54825262:54825263:-_ENSG00000132432_ENST00000352861|hu_hu|hu_hu_hu_mus_False|28_68 (ssRNA)", "RNA": "GGGAGUUCUACAGUCCGACGAUCCUGCCGGCUGGGCUCCACAAACUGCAUUACCUGAUCCAUGUUUUACCCAACCGGGAUUGAGAGCGUAGAGACACGUAGCUCAGGGAGCUUGCUAGCCCAACGGAACCGGAAGCUGGCAACCAACAGAGGAUUGAGCAUCA"}, "B4": {"name": "90366439_90367966_15320_CDS_ENSG00000112159_ENST00000369393|human|control|control (ssRNA)", "RNA": "GGGAGUUCUACAGUCCGACGAUCCUUCUGGGAGGCCAACUGGGCAAUGAAAUUCGAUUCAUGGCCUUCUGCCUGGUUUGCAUCUGCAGCUCCACUUCCGUGUUCCUCUUUCCCCUGCUCCUUCUCAGGUGCGGCCCCAGCCAGCAACAGAGGAUUGAGCAUCA"}, "B5": {"name": "chr17:34945718:34945719:+_ENSG00000005955_ENST00000304718|hu_mus|FALSE|FALSE (ssRNA)", "RNA": "GGGAGUUCUACAGUCCGACGAUCAUUUAAGCGGCAGUAUUUAUUAAAUUUCUCCUUCAGAUGCUGUCGGUAUUGUUCUCUAUUGCUGUAGAAAGACUGGUUAUUAGCCAUAAAUGACUGUAUUUCAUCUUGUGAGAUAAAGAUCAACAGAGGAUUGAGCAUCA"}, "B6": {"name": "chr13:24895032:24895033:+_ENSMUSG00000019132_ENSMUST00000019276|mus_mus|FALSE|FALSE (ssRNA)", "RNA": "GGGAGUUCUACAGUCCGACGAUCAUAUUAGCAGACUGUCAUACCACAGGGUCAAGAAACAAAAGUUGCUGUCCAGUCAUGUUUGGACAAUAAUGUUUGGGGGUUAGAUGGGGAAGGUGAAGGGGAAGGAAAGAAAGAGGAGAACAACAGAGGAUUGAGCAUCA"}, "B7": {"name": "chr13:100193624:100193625:-_ENSMUSG00000052727_ENSMUST00000064762|mus_hu|motif|central (ssRNA)", "RNA": "GGGAGUUCUACAGUCCGACGAUCUAAACCCUCAUCAUAGUUAGCAGUGCAAAACAUAGACUUAUCAGACAAAAAUCAACGGAAAUGUUAAUUUUGAAAUAAAUAACUAACAUAGAAAAUAAAAUGAGGUCAUUGUUCUCUACUCAACAGAGGAUUGAGCAUCA"}, "B8": {"name": "114299371_114299925_1475_CDS_ENSMUSG00000021143_ENSMUST00000084891|mouse|control|control (ssRNA)", "RNA": "GGGAGUUCUACAGUCCGACGAUCAAUGAUAUUCUCGGGGAGUUGGUCAUCAGAGAUGAGGAUGUGGUUCAAUUGGUCAUACACAGUUUUCCUGGGAAUCUGAAGCUGGCUCCUCGUGUCUGGACAGCGCUCAUUGUCUAGGCUCAACAGAGGAUUGAGCAUCA"}, "B9": {"name": "chr7:102939105:102939106:+_ENSG00000105819_ENST00000453466|hu_hu|motif|central (ssRNA)", "RNA": "GGGAGUUCUACAGUCCGACGAUCUCCAACUGUGCAUGUUGAGAGCCCAGAGUCUUCCGAAGCUACUCUGAGUCCACUUUCGGAACAUGUUACUCUUGUUUCAGGAACAUUCAGAACAACUUGGGUAGCAGCCUGUGUACUUCUCAACAGAGGAUUGAGCAUCA"}, "B10": {"name": "chr7:141445308:141445309:+_ENSG00000106028_ENST00000265304|hu_hu|hu_hu_hu_mus_False|8_58 (ssRNA)", "RNA": "GGGAGUUCUACAGUCCGACGAUCUAUGAUUGUUGUUGCUUGCCGCCUCACAUUGUUUUUAUCCAUGUACUCGCCAUAGUCUAUUUUCCCUUCCACAAAUAUACGAGCCCCCUUUUUCACAUACUGAUAUGCCACGUCUCUGAGCAACAGAGGAUUGAGCAUCA"}, "B11": {"name": "chr8:125590379:125590380:+_ENSMUSG00000000738_ENSMUST00000108868|mus_mus|FALSE|FALSE (ssRNA)", "RNA": "GGGAGUUCUACAGUCCGACGAUCUCUGACUGCAUUUGGAACUAUAUGCUGUUUCAGUAACAAUCCGCUAAUACCUUCAAAGCUAGGGGUCAGUAUUCGCAAUAGCAAACUCUGAGGCGCGUGGCCUCCAGCCGCAGCCGGGCCCAACAGAGGAUUGAGCAUCA"}, "B12": {"name": "chr2:65473824:65473825:+_ENSG00000138071_ENST00000260641|hu_hu|FALSE|FALSE (ssRNA)", "RNA": "GGGAGUUCUACAGUCCGACGAUCGUUUUUGGUUGGGUUCAUAGGAGGUUCUGUGAGUAAGAUUUUACAAUUUCUGGUAUCUAUAUUAAGUUUCUCUGGUCCAAAUGUGUAGUCCCACAGGUGUUUCAUGUCAUCCCAAUUUCGCAACAGAGGAUUGAGCAUCA"}, "B13": {"name": "chr17:27613171:27613172:-_ENSG00000108256_ENST00000225388|hu_hu|motif|central (ssRNA)", "RNA": "GGGAGUUCUACAGUCCGACGAUCCGUAGGAGAGGCCAGAGGAUUUUGACUUUCUAUCUCGUAGUCCUUUGAGAGAAACACGGAAGCACCUUGACUACUGGUGUCUGCUUUCUGCAGGUCACCUAUAUGACUGGGUUCCAAGGACAACAGAGGAUUGAGCAUCA"}, "B14": {"name": "chr17:60770872:60770873:+_ENSG00000011028_ENST00000303375|hu_hu|hu_hu_hu_mus_True|8_98 (ssRNA)", "RNA": "GGGAGUUCUACAGUCCGACGAUCUCUUUAAAAAAAAUUCCUUUUUUACAAACAAUAAUAGCACAUUUCGAGAAUCAAGAACUACAAUAGAGGGUCCGCUUUGAGUUUUUGUUCACAUCGUCCUGCAACGCUGUCGCGGGACUGCAACAGAGGAUUGAGCAUCA"}}, "note": "The list shows a part of the results.", "data": [{"target": "T1, UNK ZnF1-3 (human, UniProt Q9C0B0 31-174)", "T1 sequence": "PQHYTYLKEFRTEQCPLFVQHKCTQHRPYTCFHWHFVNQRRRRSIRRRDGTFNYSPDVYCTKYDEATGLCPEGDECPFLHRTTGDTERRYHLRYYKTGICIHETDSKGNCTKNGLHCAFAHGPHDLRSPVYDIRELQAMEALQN", "assay": "nsRBNS (natural sequence RNA bind-n-seq); RBNS binding buffer (assumed for nsRBNS): 25 mM Tris pH 7.5, 150 mM KCl, 3 mM MgCl2, 0.01% Triton X-100, 500 ug/ml BSA, 20 U/ml SUPERase-In, 4 C; UNK is unkempt and MSI1 is Musashi-1; names of the RNAs are library labels; protein concentration not given here; high values mean tight binding", "units": {"binding signal": "enrichment R"}, "values": [{"binder": "B1", "binding signal": 1.21}, {"binder": "B2", "binding signal": 0.895}, {"binder": "B3", "binding signal": 0.61}, {"binder": "B4", "binding signal": 0.685}, {"binder": "B5", "binding signal": 0.55}, {"binder": "B6", "binding signal": 2.31}, {"binder": "B7", "binding signal": 1.37}, {"binder": "B8", "binding signal": 0.839}, {"binder": "B9", "binding signal": 0.607}, {"binder": "B10", "binding signal": 0.52}, {"binder": "B11", "binding signal": 0.744}, {"binder": "B12", "binding signal": 0.707}, {"binder": "B13", "binding signal": 1.11}, {"binder": "B14", "binding signal": 0.831}]}]}
